Patent publication US20260184773A1, “THERAPEUTIC SINGLE DOMAIN ANTIBODY” (priority 2021, published 2026)

B1: SBT-106 (protein)
VHH: EVQLVESGGGSVQAGGSLRLSCAASVYSYNTNCMGWFRQAPGKEREGVAVIYAAGGLTYYADSVKGRFTISQENGKNTVYLTMNRLKPEDTAMYYCAAKRWCSSWNRGEEYNYWGQGTQVTVSS

Legend:
ENBOV (Ebola) in HeLa = type: cell-based, Ebola virus
ENBOV (Ebola) in HFF = type: cell-based, Ebola virus
Zika in Vero = type: cell-based, Zika virus
TC83 in HeLa = type: cell-based, Venezuelan Equine Encephalitis (TC83) virus
TC83 in BE3M27 = type: cell-based, Venezuelan Equine Encephalitis (TC83) virus
TC83 in U87MG = type: cell-based, Venezuelan Equine Encephalitis (TC83) virus
CHIV (181/25) in U205 = type: cell-based, Chikungunya virus
[1] = tested on: Zika DAKAR, Senegal in Vero; experiment: Viral inhibition; type: cell-based, Zika virus
[2] = tested on: Zika DAKAR, Senegal in HFF; experiment: Viral inhibition; type: cell-based, Zika virus

Row | Molecule | Max % Inhibition (ENBOV (Ebola) in HeLa; HeLa, ENBOV (Ebola)) [%] | Max % Inhibition (ENBOV (Ebola) in HFF; HFF, ENBOV (Ebola)) [%] | Max % Inhibition (Zika in Vero) | Max % Inhibition (TC83 in HeLa) [%] | Max % Inhibition (TC83 in BE3M27) [%] | Max % Inhibition (TC83 in U87MG) [%] | Comment (CHIV (181/25) in U205) | EC50 (CHIV (181/25) in U205) [µM] | Max % Inhibition (CHIV (181/25) in U205) [%] | Max % Inhibition [1] [%] | Max % Inhibition [2] [%] | Max % Inhibition (ENBOV (Ebola) in HeLa) [%] | Max % Inhibition (ENBOV (Ebola) in HFF)
1 | SBT-100: 15 kDa camelid single domain antibody (VHH), SEQ ID NO: 1, binds both STAT3 and KRAS | 97 | 95 | 96% | 96 | 97 | 96 | Inhibits Chickungunya (CHIV | 5.05 | 99 | 98 | 98 | – | –
2 | B1 | – | – | No | – | – | – | – | – | – | – | – | 45 | No

Read-outs that look alike come from different tables or passages of the source.
